We go through 103 sequences from publication PMC5892938.

The other results are listed elsewhere or left out. Construct or isoform of the protein are uncertain.

The target of this test is GST-SBP-ILF3 (Homo sapiens) (UniProt Q12906). In words: targeted RNA Bind-n-Seq. As to conditions: RBNS binding buffer: 25 mM Tris pH 7.5, 150 mM KCl, 3 mM MgCl2, 0.1% Tween, 0.5 mg/mL BSA, 1 mM DTT; 27 nM protein, 750 pM RNA pool; temperature not stated; high values mean tight binding; sequences stand for … in GGGUAAAAGCGAGGUGAA…CGGGACAAGUAUUAUGGG
Consider “UUUUUUUUUUGAGACCGGAACGGUUUCCUA [tttttgagapaired]”, for which the binding signal (log2 fold change) was 0.307. With “GUGUGUUGUGUUGGCCCCUAACACAGCGCG [gtspaired]” the figure was -0.067; with “UUUUUUUUUUGAGAGCGGUACGCUCUUCUA [tttttgagapaired]”, 0.0331. Take “UUUUUUUUUUGAGAGCGUGACGCUCUUCUA [tttttgagapaired]”: the binding signal (log2 fold change) was found to be 0.0393.

“GGUUGGUGUGUUGGAGUCUAACACAUCAGC [gtspaired]”: the binding signal (log2 fold change) is -0.866. Turning to “UUUUUUUUUUGAGACGGAAUCUGUCUCCGG [tttttgagapaired]”, the binding signal (log2 fold change) was 0.383. For the sequence “GUUGGUGGUGUUGGCGCCUAACACCGCCGA [gtspaired]”, the binding signal (log2 fold change) is -0.494. With “GGUUGGUGUGUUGGUCUCUAACACAUCAAC [gtspaired]” the figure was -0.88; with “UUUUUUUUUUGAGACCGAGACGGUCUCCGG [tttttgagapaired]”, 0.35.

On to “UUUUUUUUUUGAGAUGGAUCCCAUCUUCUG [tttttgagapaired]”, for which the binding signal (log2 fold change) came to 0.384. Consider “UUUUUUUUUUGAGAUCGAACCGAUCUCCUG [tttttgagapaired]”, for which the binding signal (log2 fold change) stood at 0.139. For “UUUUUUUUUUGAGAGCGAGGCGCUCUCCUA [tttttgagapaired]”, the binding signal (log2 fold change) is -0.0654. The result for “UUCUCUUCUCCUCCAGUGGAGGGGGAGGGA [ctspaired]” reads -0.668; that for “GGUUGGUGUGUUGGAGUCUAACACAUCGAC [gtspaired]”, -0.541; that for “UUUUUUUUUUGAGAGCGAUACGCUCUUCUG [tttttgagapaired]”, 0.0296. With “UUUUUUUUUUGAGACGGACGCCGUCUUCUG [tttttgagapaired]” the figure was 0.671. The result for “UUCCUCUCUCCUCCGGCGGAGGGGGGAGGA [ctspaired]” reads -0.135; that for “UUUUUUUUUUGAGACGGAUUCCGUCUUCUA [tttttgagapaired]”, 0.192; that for “UUUUUUUUUUGAGAGGGAUGCCCUCUCCGG [tttttgagapaired]”, 0.501. On to “UUCUCUCUUCCUCCUGGGGAGGAGGGGAGA [ctspaired]”, for which the binding signal (log2 fold change) was -0.691. For the sequence “UUUUUUUUUUGAGAUCGAGACGAUUUCCUA [tttttgagapaired]”, the binding signal (log2 fold change) is -0.0102. The result for “UUUUUUUUUUGAGAUGGCGACCAUCUCCUG [tttttgagapaired]” reads 0.363. Take “UUCUCUUCUCCUCCAUUGGAGGGGGAGGGA [ctspaired]”: the binding signal (log2 fold change) was -0.483.

Consider “GUUGUGUGUGUUGGCACCUAACACACACGA [gtspaired]”, for which the binding signal (log2 fold change) is -0.389. The result for “UUUUUUUUUUGAGACGGAUUCCGUCUCCGG [tttttgagapaired]” reads 0.301; that for “UUUUUUUUUUGAGAGGGCGCCCCUCUCCUA [tttttgagapaired]”, 0.63.

As for “UUUUUUUUUUGAGAGCGAUACGUUCUCCAG [tttttgagapaired]”, the binding signal (log2 fold change) stood at 0.285.

As for “GGUGGUGGUGUUGGUGCCUAACACCGCCGC [gtspaired]”, the binding signal (log2 fold change) is -0.47. With “UUUUUUUUUUGAGACCGUGACGGUCUCCGG [tttttgagapaired]” the figure was 0.314. The result for “UUUUUUUUUUGAGAUCGAGUCGAUCUUCUG [tttttgagapaired]” reads 0.0172; that for “UUUUUUUUUUGAGAGGGCCCCCCUCUCCGG [tttttgagapaired]”, 0.78. “UUUUUUUUUUGAGACUGGGGCAGUCUUCUG [tttttgagapaired]”: the binding signal (log2 fold change) was 0.75. On to “GUGGUGUGUGUUGGCACCUAACACACAUCG [gtspaired]”, for which the binding signal (log2 fold change) is -0.861. With “UUUUUUUUUUGAGAACGGGCCGUUCUCCGG [tttttgagapaired]” the figure was 0.63; with “GUGGUUGGUGUUGGUUCCUAACACCGACUA [gtspaired]”, -0.811. For “UUUUUUUUUUGAGAUCGACGCGAUCUCCUG [tttttgagapaired]”, the binding signal (log2 fold change) is 0.536. As to “GGUGUGUGUGUUGGAACCUAACACAUACGC [gtspaired]”, the binding signal (log2 fold change) was -0.395. With “GUGUGUGGUGUUGGUCCCUAACACCACGCA [gtspaired]”, the binding signal (log2 fold change) is -0.498. Regarding “UUUUUUUUUUGAGACUGUAACAGUCUCCUA [tttttgagapaired]”, the binding signal (log2 fold change) came out at 0.374. For the sequence “UUUUUUUUUUGAGAUGGGUGCCAUCUUCUA [tttttgagapaired]”, the binding signal (log2 fold change) stood at 0.355.

As for “GUGUGGUGUGUUGGAUUCUAACACAUCGCG [gtspaired]”, the binding signal (log2 fold change) is -0.832. Turning to “GGUGUUGGUGUUGGAGUCUAACACCGACGC [gtspaired]”, the binding signal (log2 fold change) is -0.576. With “UUUUUUUUUUGAGACCGAACCGGUUUCCAG [tttttgagapaired]” the figure was 0.227; with “UUUUUUUUUUGAGAGUGAGGCACUCUCCAG [tttttgagapaired]”, 0.0851; with “UUUUUUUUUUGAGACGGAGGCCGUCUUCUG [tttttgagapaired]”, 0.687.

As for “UUUUUUUUUUGAGACGGAAGCCGUUUCCAG [tttttgagapaired]”, the binding signal (log2 fold change) is 0.409.

Regarding “UUUUUUUUUUGAGAUCGUGGCGAUCUCCAG [tttttgagapaired]”, the binding signal (log2 fold change) is 0.519. With “UUUUUUUUUUGAGAGUGAUCCAUUCUCCGG [tttttgagapaired]” the figure was -0.0392. The result for “GUUGUGUGUGUUGGAUCCUAACACACGCAG [gtspaired]” reads -0.712; that for “UUUUUUUUUUGAGACUGGACCAGUCUUCUG [tttttgagapaired]”, 0.627. The result for “GUGUGGUGUGUUGGUCCCUAACACACCGCG [gtspaired]” reads -0.352; that for “GUGUGGUGUGUUGGCUCCUAACACACUACA [gtspaired]”, -0.676.

With “GUGUGUGGUGUUGGAACCUAACACCACGCG [gtspaired]”, the binding signal (log2 fold change) was -0.779. As to “UUUUUUUUUUGAGACCGGGGCGGUCUUCUA [tttttgagapaired]”, the binding signal (log2 fold change) amounted to 0.815.

For the sequence “UUUUUUUUUUGAGACCGACACGGUCUCCUG [tttttgagapaired]”, the binding signal (log2 fold change) was 0.523. The result for “UUUUUUUUUUGAGACUGUAACAGUUUCCGG [tttttgagapaired]” reads 0.59; that for “UUUUUUUUUUGAGACUGGACCAGUCUCCUA [tttttgagapaired]”, 0.179; that for “UUUUUUUUUUGAGAUGGCGACCAUCUUCUG [tttttgagapaired]”, 0.548. Take “UUUUUUUUUUGAGAGGGAACCCCUCUCCUA [tttttgagapaired]”: the binding signal (log2 fold change) amounted to 0.00509. As to “GUUGUGUGUGUUGGAUCCUAACACACACAG [gtspaired]”, the binding signal (log2 fold change) was -0.533. With “UUUUUUUUUUGAGACUGAACCAGUCUCCUG [tttttgagapaired]” the figure was 0.0517; with “GUGUGGUGUGUUGGUGUCUAACACAUCACA [gtspaired]”, -0.379; with “UUUUUUUUUUGAGACCGGCACGGUCUCCUA [tttttgagapaired]”, 0.147. The result for “UUUUUUUUUUGAGACGGAGUCUGUCUCCAG [tttttgagapaired]” reads 0.677; that for “UUUUUUUUUUGAGAGGGCUACCCUCUCCGG [tttttgagapaired]”, 0.526; that for “GUUGGUGGUGUUGGUGCCUAACACCGCCGA [gtspaired]”, -0.121. For the sequence “UUUUUUUUUUGAGACGGAUGCCGUUUCCUG [tttttgagapaired]”, the binding signal (log2 fold change) was 0.526. With “UUUUUUUUUUGAGAUCGAGGCGAUUUCCGG [tttttgagapaired]” the figure was 0.486.

Take “UUUUUUUUUUGAGAGGGAGCCCCUCUCCUG [tttttgagapaired]”: the binding signal (log2 fold change) is 0.703.

“UUUUUUUUUUGAGACUGACACAGUUUCCGG [tttttgagapaired]”: the binding signal (log2 fold change) worked out at 0.322. On to “GUGUGGUGUGUUGGCGCCUAACACAUCACA [gtspaired]”, for which the binding signal (log2 fold change) is -0.372. With “GUGUGUGGUGUUGGUCCCUAACACCGCACG [gtspaired]” the figure was -0.668; with “UUUUUUUUUUGAGAGCGGUACGUUCUCCUG [tttttgagapaired]”, 0.505. The result for “UUUUUUUUUUGAGACUGAGACAGUCUCCAG [tttttgagapaired]” reads 0.267; that for “GUGGUGUGUGUUGGUGUCUAACACAUACCA [gtspaired]”, -0.592.

As to “UUUUUUUUUUGAGACGGUUGCCGUCUUCUG [tttttgagapaired]”, the binding signal (log2 fold change) stood at 0.648. The result for “UUUUUUUUUUGAGAACGAUCCGUUCUCCAG [tttttgagapaired]” reads 0.0997; that for “UUUUUUUUUUGAGAGCGGAUCGUUCUCCUA [tttttgagapaired]”, 0.103. With “UUUUUUUUUUGAGAGGGUAUCCUUCUCCUG [tttttgagapaired]” the figure was 0.239; with “GUGUGUGGUGUUGGUGUCUAACACCGCGCA [gtspaired]”, -0.475.

As for “GUGGUUGGUGUUGGAACCUAACACCGACCG [gtspaired]”, the binding signal (log2 fold change) is -0.624.

With “UUUUUUUUUUGAGAGGGAGUCCUUCUCCGG [tttttgagapaired]”, the binding signal (log2 fold change) was found to be 0.595. With “GUGUGGUGUGUUGGCUUCUAACACACCGCA [gtspaired]” the figure was -0.405. The result for “GGUGUGUGUGUUGGCUCCUAACACAUACGC [gtspaired]” reads -0.727. For the sequence “UUCUUCUCUCCUCCUCGGGAGGGGGGAAGA [ctspaired]”, the binding signal (log2 fold change) is -0.288. The result for “UUUUUUUUUUGAGAUGGAAUCCAUCUUCUA [tttttgagapaired]” reads -0.308.

Consider “UUUUUUUUUUGAGACGGAUUCCGUCUCCAG [tttttgagapaired]”, for which the binding signal (log2 fold change) was 0.303. With “UUUUUUUUUUGAGAGGGGGUCCCUCUCCUG [tttttgagapaired]” the figure was 0.841; with “GUGUGUGGUGUUGGCUCCUAACACCGCACG [gtspaired]”, -0.64; with “UUUUUUUUUUGAGACUGUAGCAGUCUCCAG [tttttgagapaired]”, 0.559.

On to “UUUUUUUUUUGAGAGCGUAACGCUCUCCGG [tttttgagapaired]”, for which the binding signal (log2 fold change) amounted to 0.156. Consider “UUUUUUUUUUGAGACGGGGUCUGUCUUCUG [tttttgagapaired]”, for which the binding signal (log2 fold change) stood at 0.884. “GUUGUGUGUGUUGGAACCUAACACACGCAG [gtspaired]”: the binding signal (log2 fold change) was -0.586.

“GUUGGUGGUGUUGGUCCCUAACACCGCCGA [gtspaired]”: the binding signal (log2 fold change) is -0.369. Consider “UUUUUUUUUUGAGACGGGCUCCGUCUUCUA [tttttgagapaired]”, for which the binding signal (log2 fold change) is 0.521. With “UUUUUUUUUUGAGAGCGGAUCGUUCUCCGG [tttttgagapaired]” the figure was 0.26; with “GUGGUUGGUGUUGGAUUCUAACACCAGCCG [gtspaired]”, -1.16; with “UUUUUUUUUUGAGAUCGUAACGAUCUUCUA [tttttgagapaired]”, -0.0225. The result for “GUUGUGUGUGUUGGUAUCUAACACACGCGA [gtspaired]” reads -0.667; that for “GUGGUUGGUGUUGGUCUCUAACACCAAUCA [gtspaired]”, -0.665; that for “UUUUUUUUUUGAGACCGCUACGGUCUUCUG [tttttgagapaired]”, 0.375. The result for “UUUUUUUUUUGAGACGGGAGCUGUCUCCGG [tttttgagapaired]” reads 0.815; that for “UUUUUUUUUUGAGACUGACUCAGUCUCCAG [tttttgagapaired]”, 0.0847.
